Measurements reported in the supplement of paper PMC4604168 (melanoma cell lines).
The other results are listed elsewhere or left out. Single values are uncertain, as repeats are few or missing.

tested on: IPC-298; test: cell count relative to DMSO control; melanoma cells; higher = more viable cells; settings: library dose: low library concentration; 72 h
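Further: cell number obtained by counting DAPI-stained nuclei in high-throughput microscope images with image analysis software, screen run in 1,536-well plates.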

Row | SMILES | cell count
1 | O=C(O)c1ccc2c(c1)nc(Nc1cccc(Cl)c1)c1ccncc12 + C[As](C)SC[C@H](NC(=O)CC[C@H](N)C(=O)O)C(=O)NCC(=O)O [Darinaparsin] (first compound 0.4 µM, partner dose 0.4 µM) | 89.1%
2 | Cn1c(Nc2ccc(C(F)(F)F)cc2)nc2cc(Oc3ccnc(-c4ncc(C(F)(F)F)[nH]4)c3)ccc21 + Cc1cc(SCc2sc(-c3ccc(C(F)(F)F)c(F)c3)nc2C)ccc1OCC(=O)O [GW0742] (first compound 0.08 µM, partner dose 2 µM) | 72.1%
3 | C#Cc1cccc(Nc2ncnc3cc(OCCOC)c(OCCOC)cc23)c1 [erlotinib] + O=C(Oc1ccc([N+](=O)[O-])cc1)N1CCC(C(O)(c2ccc3c(c2)OCO3)c2ccc3c(c2)OCO3)CC1 [JZL184] (first compound 0.8 µM, partner dose 1 µM) | 96%
4 | Cc1cc(Nc2cc(N3CCN(C)CC3)nc(Sc3ccc(NC(=O)C4CC4)cc3)n2)n[nH]1 [Tozasertib] + Cn1cc(C2=C(c3cn(C4CCN(Cc5ccccn5)CC4)c4ccccc34)C(=O)NC2=O)c2ccccc21 [Enzastaurin] (first compound 0.006 µM, partner dose 0.8 µM) | 96.6%
5 | O=C(CCCCCCC(=O)Nc1ccccc1)NO [vorinostat] + C/C(O)=C(\C#N)C(=O)Nc1cc(Br)ccc1Br [LFM-A13] (first compound 0.08 µM, partner dose 2 µM) | 93.5%
6 | Oc1cc(-c2nc(-c3ccccc3)[nH]c2-c2ccncc2)ccc1Cl + C/C(O)=C(\C#N)C(=O)Nc1cc(Br)ccc1Br [LFM-A13] (first compound 0.2 µM, partner dose 2 µM) | 93.8%
7 | c1cc(-c2cnn3cc(-c4ccc(OCCN5CCCCC5)cc4)cnc23)ccn1 [Dorsomorphin] + O=C(Oc1ccc([N+](=O)[O-])cc1)N1CCC(C(O)(c2ccc3c(c2)OCO3)c2ccc3c(c2)OCO3)CC1 [JZL184] (first compound 0.4 µM, partner dose 1 µM) | 105%
8 | CN1CCN(c2ccc3nc(-c4c(N)c5c(F)cccc5[nH]c4=O)[nH]c3c2)CC1 [Dovitinib] + C[As](C)SC[C@H](NC(=O)CC[C@H](N)C(=O)O)C(=O)NCC(=O)O [Darinaparsin] (first compound 0.1 µM, partner dose 0.4 µM) | 102%
9 | Cc1cc(Nc2cc(N3CCN(C)CC3)nc(Sc3ccc(NC(=O)C4CC4)cc3)n2)n[nH]1 [Tozasertib] + C[As](C)SC[C@H](NC(=O)CC[C@H](N)C(=O)O)C(=O)NCC(=O)O [Darinaparsin] (first compound 0.006 µM, partner dose 0.4 µM) | 93.6%
10 | C#Cc1cccc(Nc2ncnc3cc(OCCOC)c(OCCOC)cc23)c1 [erlotinib] + C/C(O)=C(\C#N)C(=O)Nc1cc(Br)ccc1Br [LFM-A13] (first compound 0.8 µM, partner dose 2 µM) | 94.3%
11 | Oc1nc(-c2ccc(C(F)(F)F)cc2)nc2c1CSCC2 + O=C(Oc1ccc([N+](=O)[O-])cc1)N1CCC(C(O)(c2ccc3c(c2)OCO3)c2ccc3c(c2)OCO3)CC1 [JZL184] (first compound 2 µM, partner dose 1 µM) | 99.2%
12 | C[C@@H]1CCN(C(=O)CC#N)C[C@@H]1N(C)c1ncnc2[nH]ccc12 + Cc1cc(SCc2sc(-c3ccc(C(F)(F)F)c(F)c3)nc2C)ccc1OCC(=O)O [GW0742] (first compound 1 µM, partner dose 2 µM) | 104%
13 | COc1cc2ncnc(Nc3ccc(Oc4ccccc4)cc3)c2cc1OC + O=C(Oc1ccc([N+](=O)[O-])cc1)N1CCC(C(O)(c2ccc3c(c2)OCO3)c2ccc3c(c2)OCO3)CC1 [JZL184] (first compound 2 µM, partner dose 1 µM) | 97.8%
14 | C[C@@H]1CCN(C(=O)CC#N)C[C@@H]1N(C)c1ncnc2[nH]ccc12 + C/C(O)=C(\C#N)C(=O)Nc1cc(Br)ccc1Br [LFM-A13] (first compound 1 µM, partner dose 2 µM) | 100%
15 | COCC[n+]1c2c(n(Cc3cnccn3)c1C)C(=O)c1ccccc1C2=O + C/C(O)=C(\C#N)C(=O)Nc1cc(Br)ccc1Br [LFM-A13] (first compound 0.0004 µM, partner dose 2 µM) | 100%
